“And” between values parts separate entries of the source, which are not always exact repeats. Identical values can stand only once. Out of some 48,000 compounds screened, about 1,200 (2.5%) were called active. About 2% were inconclusive and are not listed.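 How the source made its calls: active means activation of at least 60% and not above a set upper limit (about 1 call in 100 departs from these limits); inconclusive means activation of 40% to 60%, or above that upper limit; inactive means activation under 40%.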 The list shows a part of the results.

For the assay, the target named is Probable G-protein coupled receptor 32 (Homo sapiens) (UniProt O75388). Nature of the assay: qHTS for Agonists of Human Resolvin D1 Receptor DRV1. The settings on record: CHO-K1 GPR32 beta-arrestin PathHunter luminescence, 90 min; at 76.9 µM; active compounds read high; zero percent set by DMSO-only wells. In a few lines: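 Using DMSO wells as EC0, agonist-induced signal was taken as chemiluminescence from beta-Gal reconstituted upon beta-arrestin recruitment to GPR32 in CHO-K1 cells after 90 min compound treatment.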
Sequence of UniProt O75388 (O75388 whole entry, looked up): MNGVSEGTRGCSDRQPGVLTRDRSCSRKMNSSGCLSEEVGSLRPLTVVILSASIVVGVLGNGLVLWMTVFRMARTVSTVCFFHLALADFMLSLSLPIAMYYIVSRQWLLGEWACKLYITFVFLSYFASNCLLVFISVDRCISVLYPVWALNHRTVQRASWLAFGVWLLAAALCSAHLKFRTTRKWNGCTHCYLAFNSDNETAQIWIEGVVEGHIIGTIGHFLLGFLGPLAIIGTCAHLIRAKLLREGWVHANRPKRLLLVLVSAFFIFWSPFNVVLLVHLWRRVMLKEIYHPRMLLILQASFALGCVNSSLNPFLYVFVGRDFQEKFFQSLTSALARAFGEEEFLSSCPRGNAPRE
For `CCOCCCNC(=O)c1cc2c(=O)n3ccccc3nc2s1`, the activation was inactive: -3.11%.

On to `Cc1ccc(C)c(N2CCN(C(=O)c3cc4cc5ccc(C)cc5nc4s3)CC2)c1`, for which the activation is inactive: -5.45%.

Regarding `CC(C)(C)c1ccc(C(=O)Nc2cc(-c3ccccc3)nn2-c2ccccc2)cc1`, the activation is inactive: -9.18%.

On to `Cc1ccc(CNc2nc3c(S(=O)(=O)c4ccc(C)c(C)c4)nnn3c3ccc(Cl)cc23)cc1`, for which the activation is inactive: -6.01%.

For `Cc1ccc(CNC(=O)CCn2ccc3cc(S(=O)(=O)N4CCCC4)ccc32)cc1`, the activation is inactive: -14.4%.

Turning to `Cc1ccc(CSc2oc(-c3ccco3)nc2S(=O)(=O)c2ccc(Br)cc2)cc1`, the activation is inactive: -13.1%.

For `CC1CCN(C(=O)CSc2nc3c([nH]c4ccccc43)c(=O)n2-c2ccccc2)CC1`, the activation is inactive: -12.3%.

As to `O=C(CN1CCN(c2ccc(Cl)cc2)CC1)Nc1ccc(Cl)c(C(F)(F)F)c1`, the activation was inactive: 16.4%.

In the case of `CCOc1ccc(-n2c(=O)c3c4c(sc3n(Cc3cc(=O)n5cc(Cl)ccc5n3)c2=O)CCC4)cc1`, the activation is inactive: -2.03%.

Regarding `CCc1ccc(NC(=O)Cn2c(=O)n(Cc3nc(C)no3)c(=O)c3cc4c(cc32)OCO4)cc1`, the activation was inactive: -17.8%.

In the case of `COc1ccccc1NC(=O)CSc1nnc(-c2nonc2NC(C)=O)n1-c1ccccc1`, the activation is inactive: -18%.

In the case of `CCN(c1ccccc1)S(=O)(=O)c1ccc(NC(=O)c2cc(=O)c3ccc(C)c(C)c3o2)cc1`, the activation is inactive: -4.07%.

With `Cc1ccc2c(CC(=O)Nc3c(C(=O)c4ccc(F)cc4)oc4ccccc34)coc2c1`, the activation was inactive: -11.9%.

With `COc1ccc(-c2nc3c(c(SCc4cc(C)ccc4C)n2)Cc2c(CO)cnc(C)c2O3)cc1`, the activation is inactive: 8.25%.

Turning to `COc1ccc(N2CCN(C(=O)c3nn(C)c4c3CS(=O)(=O)c3ccccc3-4)CC2)cc1`, the activation is inactive: 13.2%.

On to `CCC(=O)OCc1cnc(C)c2oc(=O)c(C(=O)Nc3ccc(CC)cc3)cc12`, for which the activation is inactive: -11.2%.

Take `CC(NC(=O)C1CCN(C(=O)N2CCOc3ccc(Cl)cc32)CC1)c1ccccc1` (stereo not drawn): the activation is inactive: -14.2%.

Regarding `Cn1cc(C(=O)[C@@H]2CCc3nc[nH]c3C2)c2ccccc21`, the activation is inactive: 5.91%.

Regarding `O=C(CCSCc1ccc(Cl)cc1)N1CCN(c2ccccc2F)CC1`, the activation was inactive: -25.2%.

On to `COc1ccc(CCNC(=O)CS(=O)Cc2nc(-c3ccc(C)cc3)oc2C)cc1OC` (stereo not drawn), for which the activation is inactive: -15.2%.

With `NC(=O)c1cc(S(=O)(=O)NCc2ccc(Br)cc2)cs1`, the activation is inactive: 5.24%.

For `COc1ccccc1Nc1nn2c(=O)c3ccc(C(=O)Nc4ccc(F)cc4)cc3nc2s1`, the activation was inactive: 9.21%.

Consider `CCCN(CCC)CCNC(=O)Cn1ncc2c([nH]c3ccc(C)cc32)c1=O`, for which the activation is inactive: -9.83%.

For `Cc1cccc(C(=O)O)c1O`, the activation was inactive: -46.1%.

In the case of `CCOc1ccc2oc(=O)cc(CN3CCN(C(=O)c4cccc(F)c4)CC3)c2c1`, the activation was inactive: -12.6%.

`CCOC(=O)c1[nH]c(C)c(CCC(=O)NCc2ccc(C)cc2)c1C`: the activation is inactive: -11.6%.

For `CCc1cccc(-n2c(=O)c3cccnc3n2CC(=O)NCc2ccccc2Cl)c1`, the activation was inactive: -16.4%.

Consider `CCOC(=O)c1ccc(NC(=O)CCc2c(C)n(CC)c3cc(-c4ccccc4OC)nn3c2=O)cc1`, for which the activation is inactive: -10.7%.

`Cc1ccccc1NC(=O)Cn1nnc(C(=O)NCc2cccs2)c1N`: the activation is inactive: -2.47%.

For the compound `Cc1ccc(NC(=O)CCc2c(C)nc3ncnn3c2C)cc1Cl`, the activation is inactive: 3.28%.

Consider `Cc1cccc(NC(=O)CN2C(=O)CC(c3ccccc3)Sc3ccccc32)c1` (stereo not drawn), for which the activation was inactive: -18.3%.

In the case of `CCc1ccc(NC(=O)Cn2nnc(C(=O)Nc3ccc(F)cc3)c2N)cc1`, the activation was inactive: -1.95%.

On to `CC(CNC(=O)c1csc2c1CCCCC2)c1ccccc1` (stereo not drawn), for which the activation is inactive: -7.72%.

For `Cc1ccc(CSc2nc3cc(C(=O)NC4CCCC4)ccc3c(=O)n2Cc2ccccc2)cc1`, the activation is inactive: -17.6%.

`CCc1ccc(NS(=O)(=O)c2ccc(NC(=O)N3CCCC3)cc2)cc1`: the activation is active: 68.7%.

In the case of `COc1ccc(CCN2C(=O)N(c3ccc(C)cc3)C(=O)C2CC(=O)Nc2ccc(OC)cc2)cc1` (stereo not drawn), the activation was inactive: -1.64%.

Consider `O=C(NCc1cccc(Cl)c1)c1ccc2c(Cl)c3c(nc2c1)CCCC3`, for which the activation was inactive: -7.09%.

For the compound `CCOC(=O)C1CCCN(C(=O)Cn2ncc3c4ccccc4n(C)c3c2=O)C1` (stereo not drawn), the activation was inactive: -2.56%.

On to `COc1cc(NC(=O)c2cc(S(=O)(=O)N3CCC(C)CC3)cn2C)cc(OC)c1OC`, for which the activation is inactive: -3.33%.

Regarding `O=C(CSc1ncc(CO)n1Cc1ccc(F)cc1)NCc1ccco1`, the activation is inactive: 7.63%.

As to `COc1cc(O)ccc1-c1nc2cc(C)ccn2c1Nc1ccccc1C`, the activation is inactive: 8.02%.

Turning to `O=C(Nc1cccc(F)c1)C1CCN(S(=O)(=O)c2ccc3[nH]c4c(c3c2)CCCCC4)CC1`, the activation was inactive: 9.43%.

`COc1ccc(NC(=O)CSc2nc3nc(C)cc(C)n3n2)cc1OC`: the activation is inactive: 3.78%.

For the compound `Cc1cccc2c(=O)cc(CSc3ccccc3NC(=O)c3cccc(Br)c3)[nH]c12`, the activation is inactive: -1.52%.

Turning to `CCc1ccc(S(=O)(=O)Nc2cccc(-c3ccc(OC)nn3)c2)s1`, the activation was inactive: 9.06%.

On to `Fc1ccc(C(c2ccc(F)cc2)N2CCN(C/C=C/c3ccccc3)CC2)cc1`, for which the activation is inactive: 40.2% and inactive: -11.9%.

Regarding `CCOc1ccccc1NC(=O)NCc1noc2ccc(C)cc12`, the activation is inactive: -10.8%.

For `COC(=O)C1=C(C)NC(C)=C(C(=O)OCC(C)=O)C1c1ccccc1[N+](=O)[O-]` (stereo not drawn), the activation was inactive: -7.97%.

Take `O=c1n(Cc2ccc(Cl)cc2)nc2n1-c1ccccc1OC2`: the activation is inactive: 16.5%.

For `COc1cccc(NC(=O)c2sc3nc(C)c(C(=O)Nc4ccc(C)cc4C)c(-c4ccc(C)o4)c3c2N)c1`, the activation was inactive: -16%.

As for `CCC1CCCCN1CCCNC(=O)c1c(C)oc2ncn(CC(C)C)c(=O)c12` (stereo not drawn), the activation is inactive: -8.9%.

`COc1cccc2c1cc1c(=O)n(CC(=O)NCc3ccc(N(C)C)cc3)nc(C)n12`: the activation is inactive: -9.41%.

As to `COc1cc(C(=O)NCC(c2ccc3c(c2)OCO3)N2CCN(C)CC2)cc(OC)c1OC` (stereo not drawn), the activation was inactive: -19.4%.

As to `Cc1ccc(N2CC(C(=O)NCc3nnnn3-c3ccc(C)c(C)c3)CC2=O)cc1C` (stereo not drawn), the activation was inactive: -11.1%.

Regarding `CCOc1cccc(C(=O)Nc2ccc(-c3nc4cc(C)cc(C)c4o3)cc2)c1`, the activation is inactive: -3.67%.

Consider `CCc1ccccc1NC(=O)Cn1nnc(C(=O)Nc2ccc(OC)c(OC)c2)c1N`, for which the activation is inactive: 3.23%.

In the case of `CCc1ccc(S(=O)(=O)N2CCN(c3ccc(Cl)c(Cl)c3)CC2)cc1`, the activation is inactive: -4.09%.

As for `CCOC(=O)c1ccccc1NC(=O)c1nn(-c2ccc(C)cc2)c(=O)n(C)c1=O`, the activation was inactive: -1.65%.

In the case of `CCCCN(Cc1ccco1)C(=O)c1cc2c(s1)-c1c(C)cccc1OC2`, the activation was inactive: -15.5%.

Turning to `Cc1cccc(NC(=O)c2oc3ccc(S(=O)(=O)N(C)C4CCCCC4)cc3c2C)c1C`, the activation is inactive: -16%.

Turning to `Cc1cccc(OCCOCCn2c(-c3ccc(Cl)cc3)nc3ccccc3c2=O)c1C`, the activation is inactive: 8.94%.

Consider `CCOCCCNC(=O)Cn1cc2c(n1)-c1c(oc(C(=O)N3CCCC3)c1C)CC2`, for which the activation was inactive: 15.8%.

Regarding `COc1c(Cl)cc(Cl)cc1/C=C(\C#N)c1nc(-c2ccc(Cl)cc2)cs1`, the activation is inactive: -1.33%.

Take `COc1ccc(-n2ncc(C(=O)NCCCN3CCCCC3)c2C2CCN(C(=O)OC(C)(C)C)CC2)cc1`: the activation is inactive: -5.32%.

As to `COc1ccc(-c2cc(-c3ccc4c(c3)NC(=O)CO4)nc3c2COc2ccc(C)cc2-3)cc1`, the activation was inactive: -2.14%.

In the case of `CCc1ccccc1NC(=O)c1cnn(-c2ccc(F)cc2)c1C1CCNCC1`, the activation is inactive: -3.53%.

Consider `Cc1c(NC(=O)C(F)(F)F)ccc2nc3c(=O)n(C)c(=O)n(C)c3nc12`, for which the activation was inactive: 29.9%.

Consider `Nc1nc(N)c2nc(CNc3ccc(C(=O)NC(CCC(=O)O)C(=O)O)cc3)cnc2n1` (stereo not drawn), for which the activation was inactive: 13.4%.

On to `Cc1ccc(C(C)C)c(OCCCn2c(=O)oc3ccc(C)cc32)c1`, for which the activation was inactive: -37.6%.

With `Cc1ccccc1NC(=O)c1ccc(F)c(S(=O)(=O)N2CCc3ccccc3C2)c1`, the activation was inactive: -12.3%.

Turning to `COC(=O)Cn1ccc2cc(S(=O)(=O)N3CCCCC3)ccc21`, the activation is inactive: -11.4%.

Turning to `Cc1cc(C)c(S(=O)(=O)N2CCC(N3CCN(Cc4ccc(F)cc4)C(=O)C3=O)CC2)c(C)c1`, the activation was inactive: -6.4%.

For `CC(C)c1ccc(NC(=O)c2cnn3c(C(F)F)cc(-c4ccccc4)nc23)cc1`, the activation is inactive: -8.71%.

In the case of `Cc1ccc(C)c(N2CCN(C(=O)C3CCC(CNS(=O)(=O)c4ccc(Br)s4)CC3)CC2)c1` (stereo not drawn), the activation is inactive: -16.4%.

Consider `O=C(O)COc1ccccc1C1Nc2ccccc2-c2nnc(SCc3ccc(Cl)cc3)nc2O1` (stereo not drawn), for which the activation is active: 108%.

With `COc1cccc(NC(=O)Cn2c(=O)n(CCCCC(=O)NCc3ccc4c(c3)OCO4)c(=O)c3ccccc32)c1`, the activation was inactive: -24.1%.

In the case of `CCOC(=O)N1CCC(NC(=O)c2cnn(-c3ccc(C)cc3)c2C2CCN(C(=O)OC(C)(C)C)CC2)CC1`, the activation was inactive: -9.3%.

With `COc1ccc(-n2c(SCc3nc(-c4ccc(Cl)cc4)no3)nnc2-c2ccncc2)cc1`, the activation was inactive: -13%.

As for `CCOc1ccccc1C(=O)Nc1cc(-c2nc3cccnc3s2)ccc1C`, the activation is inactive: -5.39%.

Regarding `CCC(Sc1ncnc2sc3c(c12)CCCC3)C(=O)OCC(C)C` (stereo not drawn), the activation was inactive: -4.1%.

For the compound `CCCS(=O)(=O)N1CC(=O)N(c2cc(C)cc(C)c2)C(C)(C(=O)NC2CCCCCC2)C1` (stereo not drawn), the activation is inactive: -8.88%.

For the compound `N#Cc1ccc(NC(=O)c2ccc3c(c2)nnn3C2CCCC2)cc1`, the activation was inactive: 13.2%.

As to `Oc1cccc(Nc2cc(-c3ccccc3)ncn2)c1`, the activation is inactive: -1.1%.

Values taken from PubChem BioAssay AID1346428 (National Center for Advancing Translational Sciences (NCATS), 2018).
